Reference: paper PMC12136788
Residue numbers refer to the chain shown, from its start. The list shows a part of the results.

B1: chr1:95363388:95363389:-_ENSG00000117519_ENST00000538964|hu_hu|FALSE|FALSE (ssRNA)
RNA: GGGAGUUCUACAGUCCGACGAUCUCUGGGGUAGUCAUCCUGGUACUCGCCAUGAUACUCAUCAGGGUAUUCUGCCUGAUAAUCACUAUCACUGAUUUCCGAACCAUUUGUUCCUGUUCCUUGGCUUCCGUUGUGAAUGACAGGCAACAGAGGAUUGAGCAUCA
B2: chr14:31813938:31813939:-_ENSMUSG00000021917_ENSMUST00000162092|perfect_dup|FALSE|FALSE (ssRNA)
RNA: GGGAGUUCUACAGUCCGACGAUCAACUAUGUAGACAGUCCACCCAAACUGUUCAGCCACGUACCCGUAGAUAAACCCAACUAUUGCAGAAAAAAGAAUGAUCCCCUGAAACAUCUGUUCAGCUAGUUUCUGCCCCUUGUAAUCCAACAGAGGAUUGAGCAUCA
B3: chr9:64574521:64574522:-_ENSMUSG00000004771_ENSMUST00000172298|mus_hu|motif|central (ssRNA)
RNA: GGGAGUUCUACAGUCCGACGAUCACUGCCCUGAGAUGACGUAGAUCACUCUUAUUGCCCACAAGCAUGAUAACAAUGUUACGGUCAGCAUGAUCUCUCAGUUCUUUCAGCCAUCGCUCUACAUUUUCAUAUGUGAGAUGUUUACAACAGAGGAUUGAGCAUCA
B4: chr3:123074248:123074249:-_ENSMUSG00000028114_ENSMUST00000029759|mus_mus|motif|central (ssRNA)
RNA: GGGAGUUCUACAGUCCGACGAUCGAUAGUGCUAUCUCUCCCAAAGAGAUGAAGGCGUCUUCUACCAAGACAAAAAUGUUCGGUUAUAUGAAAAAUUUCUACUGGUUUUUCUAUAUUGCCAAUCUCAGGUUCUUCUGUGAUAAUCAACAGAGGAUUGAGCAUCA
B5: chr1:220276048:220276049:+_ENSG00000067704_ENST00000302637|hu_hu|hu_hu_hu_mus_True|98_98 (ssRNA)
RNA: GGGAGUUCUACAGUCCGACGAUCGCAAAUUGCCUGGUUGGCUGGAAUUGUCCAAGGCUGGGUGGUCCAAACUAAAACGCUAACAGGGGAUGAGGCAUCUGUAAGAGACUCCAACUUCGGAGGAGGUCUCAGGAGGGGGAAUCUCAACAGAGGAUUGAGCAUCA
B6: chr13:48835921:48835922:+_ENSG00000136156_ENST00000378565|hu_mus|motif|central (ssRNA)
RNA: GGGAGUUCUACAGUCCGACGAUCAUAUGGGCUAUACAAAUUAGUAACAUGAGUUGCUUCUUAAAUUCCAAACAUUUGUCGGAAAUCUUAUUACAGCAGAGGCCUAGGAUAUUAAAACAUCAAGGCUGAAAUCCUCUAAAGUAGCAACAGAGGAUUGAGCAUCA
B7: chr5:24309113:24309114:-_ENSMUSG00000028945_ENSMUST00000030787|mus_hu|FALSE|FALSE (ssRNA)
RNA: GGGAGUUCUACAGUCCGACGAUCUUUUAUUUACAAGUAUACAUUUAACACAAUGAAAUAAACACUGAUAUACUGAAGCCUAGUUAAUAGUAGUGUAACAAUAUGCAUCAUUUUGAUGAUUACAUUAUUUUAAACAACAAACUACAACAGAGGAUUGAGCAUCA
B8: chr2:198351390:198351391:-_ENSG00000144381_ENST00000345042|hu_hu|hu_hu_hu_mus_False|18_48 (ssRNA)
RNA: GGGAGUUCUACAGUCCGACGAUCUCAUUCCCACCCUCCACAGAAAGGCUGCUUCUGAACUCUCAUGUGGUGACACAGCGCUACAGUCCUGAUUUUAACAGAACAGUAGAGAUGCCUCCUCAGUGAUAGUUGAAAGCAGGACACCAACAGAGGAUUGAGCAUCA
B9: chr4:144460044:144460045:+_ENSG00000153147_ENST00000283131|hu_mus|hu_hu_hu_mus_False|8_8 (ssRNA)
RNA: GGGAGUUCUACAGUCCGACGAUCACGGUCCAUAGCCUGAAGAUCAACUUGCGGAUUCCAAUCUGAGUCAUAUAAAAUGACUACAUCAGCAGUUGCAAGAUUGAUGCCCAGACCACCAGCACGUGUGCUUAACAUGAAUACAAACAACAGAGGAUUGAGCAUCA
B10: 57657005_57657125_91_3pUTR_ENSMUSG00000062949_ENSMUST00000101527|mouse|control|control (ssRNA)
RNA: GGGAGUUCUACAGUCCGACGAUCUCGCGUCCGAGGCUGCGGGGUGCCAGGCUGGGCUCCGCUGGGCUGUCUGGGAAGGCGCCGUCCACAAAACACACUGCGGCGUGGGCCCGCGGCGCAAAGCGGACAGCUAGCUCGCCUGCCCAACAGAGGAUUGAGCAUCA
B11: chr9:7834011:7834012:-_ENSMUSG00000057367_ENSMUST00000074246|mus_mus|FALSE|FALSE (ssRNA)
RNA: GGGAGUUCUACAGUCCGACGAUCCAUGGCAUAGCUGCAGGGAUCCAUCCUUGAUGAGAAGUCUUCCACUGCUCUAGAAUUAAGAGGGCUAGAGCACAGGUUGGAGUGAAUGCCACCUCGUUCCAGAGGUGACGAAUGUGCAAACAACAGAGGAUUGAGCAUCA
B12: chr2:24646365:24646366:-_ENSMUSG00000036893_ENSMUST00000102938|mus_hu|FALSE|FALSE (ssRNA)
RNA: GGGAGUUCUACAGUCCGACGAUCUUAUUGAUUUCAUUGGAAACAGAACAAGAAAUGGUCAGAGCCAAAAGACUGCUCUUAAAACUGUCAAAAACAUUUUAACAGAAAAAAAUAAACAUGACUGCAUUAUGAAUGUUUUUAGAACAACAGAGGAUUGAGCAUCA
B13: chr4:140556289:140556290:+_ENSMUSG00000036622_ENSMUST00000037055|mus_mus|mus_mus_mus_hu_False|8_28 (ssRNA)
RNA: GGGAGUUCUACAGUCCGACGAUCGAUGGAGCUCACCAGGCCCCCUUUUGCCGUGCAGAACCCUGUGCGGGUCACCACUGCCAGGACGUGCGGUCCCACAUAGGCCCGGGCCUGCAGGAUGAGGGUCCCACAGAAGAGUGUGUGCAACAGAGGAUUGAGCAUCA
B14: 10437852_10437972_582_CDS_ENSMUSG00000027534_ENSMUST00000029047|mouse|control|control (ssRNA)
RNA: GGGAGUUCUACAGUCCGACGAUCUGUAGGUGUUGAAGGUCUGUCUUCCCAGUUCACUGCCUCAGGAUGCUGCUCUUCAGCCUCUCUUGGUCUAGCAGAAUACUCAAUGGAUGAAUCUGUCCCUGUAAAUUUAGUCCUAAUGAGCAACAGAGGAUUGAGCAUCA
B15: chr7:151048522:151048523:+_ENSG00000013374_ENST00000566856|hu_mus|hu_hu_hu_mus_True|8_28 (ssRNA)
RNA: GGGAGUUCUACAGUCCGACGAUCCUGUUUCUUAUUUAUUACGAUCUUGAUGUAAUUUUCUUGAAAUCCGAAAGUUUCAGCUAUUUGACACCUCAGGUCUCUACCAGUGAUGUGCAAGCGGGUCUCCAACAAGUUUUUCUUAUCCAACAGAGGAUUGAGCAUCA
B16: chr7:140404665:140404666:+_ENSG00000090266_ENST00000247866|hu_hu|hu_hu_hu_mus_False|1_88 (ssRNA)
RNA: GGGAGUUCUACAGUCCGACGAUCUGCUCCUACUCGUCCAGAGAGUUUACACCUUCAGUCCUCGUCAUCAGGAGGGAUUCCCAGUUCUUCAUCUGUCCACUGUGAAGGAUCUGGAUAUGAAAAGUGACCCAGCACAGCUUCUGACAACAGAGGAUUGAGCAUCA
B17: chr7:75932113:75932114:+_ENSG00000106211_ENST00000248553|hu_hu|hu_hu_hu_mus_False|38_88 (ssRNA)
RNA: GGGAGUUCUACAGUCCGACGAUCCUGCGACCACUCAUCGGGCAACCGGGGCAGCCCGAAAGCUUGAUCGAAGAGGCGGCUGUGUGCAGGGUACCAGCGGAAGGGGUGUUCCCAGCUCGGGCUCCGCAGCAGCGAGAAGGGCACCAACAGAGGAUUGAGCAUCA
B18: 57396970_57398484_344_3pUTR_ENSMUSG00000032306_ENSMUST00000034856|mouse|control|control (ssRNA)
RNA: GGGAGUUCUACAGUCCGACGAUCCUUCUCUGCCAGCUCCUUGUUAGGGUGUGCCUGGAUAGACAGGGCCGUGUCCACUGACAGUACUUUGAAGAGGAAGGGCAGCUUUCCAUUAAAGGUGUUUUUGACCUUUGAGCCCAAGCACAACAGAGGAUUGAGCAUCA
B19: chr1:39494564:39494565:+_ENSG00000168653_ENST00000372967|hu_hu|hu_hu_hu_mus_True|58_88 (ssRNA)
RNA: GGGAGUUCUACAGUCCGACGAUCAUGCAUUCGCCUCAUCGUUUUGUGCCGAAGCAAGCACUCUUCGAAGUCAUCGAAUUCUAUCUUGCACUCCUUUUUCGCCCGGGUCCCACCGAUCCCGUGUGCACACUCUAUCCACUCUUUCAACAGAGGAUUGAGCAUCA
B20: chr12:39756943:39756944:-_ENSG00000139116_ENST00000544797|hu_mus|hu_hu_hu_mus_False|1_1 (ssRNA)
RNA: GGGAGUUCUACAGUCCGACGAUCGGUUUGGCUGUUACCCCCAAGGGAAUCCUGCAAGAGUCUUGUCAGCUUAGAGUCUCUGUAAGGGACAUGGGUGGCUCUCUUGCUCUUGUCCCCCAAGGCGCUGAUUACAUUCCCAAGUGCCAACAGAGGAUUGAGCAUCA
B21: chr12:39756943:39756944:-_ENSG00000139116_ENST00000544797|hu_mus|hu_hu_hu_mus_False|48_68 (ssRNA)
RNA: B20 RNA with A72G, G75A, G93U, U141A
B22: 148938904_148939024_1092_3pUTR_ENSMUSG00000028988_ENSMUST00000030839|mouse|control|control (ssRNA)
RNA: GGGAGUUCUACAGUCCGACGAUCGGAAACCAAACCCGCAUCUUACUGCCAAUCAAAUCCAAACACAAACCCACUACGUGAAGGCAGCAGCCAGCUCUUUGUGUAAUAAAUAUUGCAAAGCUCACUUCAUUUCUUUCUUUCUUUCAACAGAGGAUUGAGCAUCA

These binders were tested against T1, UNK ZnF1-3 (human, UniProt Q9C0B0 31-174) (assay: nsRBNS (natural sequence RNA bind-n-seq); RBNS binding buffer (assumed for nsRBNS): 25 mM Tris pH 7.5, 150 mM KCl, 3 mM MgCl2, 0.01% Triton X-100, 500 ug/ml BSA, 20 U/ml SUPERase-In, 4 C; UNK is unkempt and MSI1 is Musashi-1; names of the RNAs are library labels; protein concentration not given here; high values mean tight binding).
T1 sequence: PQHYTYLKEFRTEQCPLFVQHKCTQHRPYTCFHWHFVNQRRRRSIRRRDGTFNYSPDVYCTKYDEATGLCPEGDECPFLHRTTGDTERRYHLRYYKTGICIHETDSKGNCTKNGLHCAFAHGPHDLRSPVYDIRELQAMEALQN
Binder B1 has a binding signal of 0.483 enrichment R. Work on B2 yielded a binding signal of 1.36 enrichment R. B3 showed a binding signal of 0.702 enrichment R. B4 showed a binding signal of 0.883 enrichment R. Work on B5 yielded a binding signal of 2.98 enrichment R. For B6, the binding signal was 1.03 enrichment R. Binder B7 has a binding signal of 0.582 enrichment R. With B8 the binding signal was 0.941 enrichment R. Binder B9 has a binding signal of 0.87 enrichment R. With B10 the binding signal was 0.796 enrichment R. B11 showed a binding signal of 1.1 enrichment R. B12 showed a binding signal of 0.985 enrichment R. With B13 the binding signal was 1.26 enrichment R. For B14, the binding signal was 0.659 enrichment R. B15 was tested, and the binding signal was 0.63 enrichment R. Binder B16 has a binding signal of 1.12 enrichment R. B17 gave a binding signal of 1.53 enrichment R. B18 was tested, and the binding signal was 1.68 enrichment R. Binder B19 has a binding signal of 0.633 enrichment R. B20 was tested, and the binding signal was 0.624 enrichment R. Binder B21 has a binding signal of 0.719 enrichment R. Work on B22 yielded a binding signal of 1.58 enrichment R.
